Drawing on PMC8321701, this text covers binding for two molecules.

Sequences of proteins named here, by UniProt entry; tags and fusion partners are left off. A change or cut given only in a name is not applied to a line headed by its entry.
UniProt P62745: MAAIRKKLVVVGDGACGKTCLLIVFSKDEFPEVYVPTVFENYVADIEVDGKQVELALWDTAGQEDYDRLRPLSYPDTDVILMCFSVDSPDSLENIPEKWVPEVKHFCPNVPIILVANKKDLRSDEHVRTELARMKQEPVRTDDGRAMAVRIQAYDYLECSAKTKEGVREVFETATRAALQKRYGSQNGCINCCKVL

No constants are given. Whether binding was seen depends on the method and setting. Binding seen in cells or lysates may run through a third protein. Some entries that bind do so weakly or less than the wild type. Sequences can lack the tags named with a protein.

The assay deals with purified His-RhoB (Q63L) (human) (UniProt P62745). Nature of the assay: pull-down; lysates of SKBR-3 cells expressing Myc-CNKSR1 (WT, ΔPH or W493A) in IP buffer (25 mM Tris-HCl pH 7.4, 150 mM NaCl, 1% NP-40, 1 mM EDTA, 5% glycerol) incubated with purified His-tagged RhoB (Q63L) 2 h at 4°C, then TALON resin 1 h at 4°C; Western blot; only the target purified. (A western blot detects proteins with antibodies after separation by electrophoresis.)

B1: Myc-CNKSR1 (wild-type) (protein, UniProt Q969H4 1-720)
chain: MEPVETWTPGKVATWLRGLDDSLQDYPFEDWQLPGKNLLQLCPQSLEALAVRSLGHQELILGGVEQLQALSSRLQTENLQSLTEGLLGATHDFQSIVQGCLGDCAKTPIDVLCAAVELLHEADALLFWLSRYLFSHLNDFSACQEIRDLLEELSQVLHEDGPAAEKEGTVLRICSHVAGICHNILVCCPKELLEQKAVLEQVQLDSPLGLEIHTTSNCQHFVSQVDTQVPTDSRLQIQPGDEVVQINEQVVVREERDMVGWPRKNMVRELLREPAGLSLVLKKIPIPETPPQTPPQVLDSPHQRSPSLSLAPLSPRAPSEDVFAFDLSSNPSPGPSPAWTDSASLGPEPLPIPPEPPAILPAGVAGTPGLPESPDKSPVGRKKSKGLATRLSRRRVSCRELGRPDCDGWLLLRKAPGGFMGPRWRRRWFVLKGHTLYWYRQPQDEKAEGLINVSNYSLESGHDQKKKYVFQLTHDVYKPFIFAADTLTDLSMWVRHLITCISKYQSPGRAPPPREEDCYSETEAEDPDDEAGSHSASPSPAQAGSPLHGDTSPAATPTQRSPRTSFGSLTDSSEEALEGMVRGLRQGGVSLLGQPQPLTQEQWRSSFMRRNRDPQLNERVHRVRALQSTLKAKLQELQVLEEVLGDPELTGEKFRQWKEQNRELYSEGLGAWGVAQAEGSSHILTSDSTEQSPHSLPSDPEEHSHLCPLTSESSLRPPDL
For B1, the binding entry is reported as “binds”.

B2: Myc-CNKSR1 (W493A) (protein, UniProt Q969H4 1-720)
chain: MEPVETWTPGKVATWLRGLDDSLQDYPFEDWQLPGKNLLQLCPQSLEALAVRSLGHQELILGGVEQLQALSSRLQTENLQSLTEGLLGATHDFQSIVQGCLGDCAKTPIDVLCAAVELLHEADALLFWLSRYLFSHLNDFSACQEIRDLLEELSQVLHEDGPAAEKEGTVLRICSHVAGICHNILVCCPKELLEQKAVLEQVQLDSPLGLEIHTTSNCQHFVSQVDTQVPTDSRLQIQPGDEVVQINEQVVVREERDMVGWPRKNMVRELLREPAGLSLVLKKIPIPETPPQTPPQVLDSPHQRSPSLSLAPLSPRAPSEDVFAFDLSSNPSPGPSPAWTDSASLGPEPLPIPPEPPAILPAGVAGTPGLPESPDKSPVGRKKSKGLATRLSRRRVSCRELGRPDCDGWLLLRKAPGGFMGPRWRRRWFVLKGHTLYWYRQPQDEKAEGLINVSNYSLESGHDQKKKYVFQLTHDVYKPFIFAADTLTDLSMAVRHLITCISKYQSPGRAPPPREEDCYSETEAEDPDDEAGSHSASPSPAQAGSPLHGDTSPAATPTQRSPRTSFGSLTDSSEEALEGMVRGLRQGGVSLLGQPQPLTQEQWRSSFMRRNRDPQLNERVHRVRALQSTLKAKLQELQVLEEVLGDPELTGEKFRQWKEQNRELYSEGLGAWGVAQAEGSSHILTSDSTEQSPHSLPSDPEEHSHLCPLTSESSLRPPDL
For the molecule B2, the binding result was “no binding”.
